In PubChem BioAssay AID1345082 (National Center for Advancing Translational Sciences (NCATS), 2018):
In all, about 94,000 compounds went through this assay and about 4,000 (4.3%) were called active. This list was built around the results that the source calls inconclusive (neither active nor inactive); the mix of calls is not that of the screen. Calls come from the whole dose curve; as a rule, active = well fitted inhibition curve with a large enough effect; inconclusive = small, poorly fitted or top-dose-only effect; inactive = no such curve, though single readings can be large or run the other way. Potencies beside an inconclusive call are fits to weak or partial responses and may not hold up.
Potency is the fitted concentration of half-maximal effect; tags give direction and shape of the fitted curve.

Test: Cytotoxic Profiling in NIH 3T3 Cell Line of Diverse Libraries Using Quantitative High-Throughput Screening; note: nearly all actives have a fitted effect of over 55% in size
Conditions: NIH 3T3 viability, CellTiter-Glo ATP luminescence, 48-72 h; series mostly up to 96.7 µM
Method in brief: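 NIH 3T3 cells at 400 cells/well received 23 nL of compound by pintool and were incubated 48 or 72 h at 37 °C. Viability was read as ATP-coupled CellTiter-Glo luminescence.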
With O=C1[C@@H]2C[C@@H](CN2Cc2ccccc2)Oc2ccccc2N1Cc1ccccc1 the Potency was inconclusive: 50.1 µM [inhibitor, partial curve, poor fit]. In the case of COc1ccc(C(=O)N2CCCN(c3cc(-c4ccccc4)[nH]n3)CC2)c(C)c1, the Potency is reported as inconclusive: 44.7 µM [inhibitor, partial curve, poor fit]. In the case of CCCNC(=O)N1CCCCCC1CN1CCOCC1 (configuration not stated), the Potency is reported as “inactive”. With CCOC(=O)[C@@H]1[C@@H](OC)C(=O)N(C)C12CCN(C(=O)OCC(C)C)CC2 the Potency was inconclusive: 44.7 µM [inhibitor, partial curve, poor fit]. In the case of COc1ccccc1-c1cccc(CN2CCC(NC(=O)N(C)C)CC2)c1, the Potency is reported as inconclusive: 44.7 µM [inhibitor, partial curve, poor fit]. With c1ccc(-c2ccc(CN3CCCC3)cc2)c(CN2CCOCC2)c1 the Potency was “inactive”. In the case of COc1ccc(C(=O)Nc2ccc([C@H]3OCC(=O)N(Cc4ccc(F)cc4)[C@@H]3CO)cc2)cc1, the Potency is reported as “inactive”. For O=C(Cc1ccc(Cl)cc1)N1CCN(c2cc(-c3cccs3)[nH]n2)CC1, the Potency was inconclusive: 22.4 µM [inhibitor, full curve, poor fit]. With COc1ccc(-c2noc(C(=O)O)c2[C@@H](C)NC(=O)c2cc(C)n(C)n2)cc1 the Potency was “inactive”. In the case of CCCc1noc(-c2cn(C3CCN(C(=O)c4ccco4)CC3)nn2)n1, the Potency is reported as inconclusive: 50.1 µM [inhibitor, partial curve, poor fit]. For O=C(c1cc(-c2ccccc2)n[nH]1)N1CCCC(Cc2noc(-c3cnccn3)n2)C1 (configuration not stated), the Potency was “inactive”. With Cc1oc(C(O)c2ccccc2)nc1C(=O)NCc1ccco1 (configuration not stated) the Potency was inconclusive: 89.1 µM [inhibitor, partial curve, poor fit]. In the case of O=C(Nc1ccccc1Cl)c1ccc2nnc(-c3ccc(Cl)cc3)n2c1, the Potency is reported as inconclusive: 50.1 µM [inhibitor, partial curve, poor fit]. With COc1ccc(CC(=O)NC[C@@H]2C=C(C)[C@H](Cc3nc4ccncc4[nH]3)C[C@H]2C(C)C)cc1 the Potency was “inactive”. With NC(=O)[C@@H]1CN(C(=O)c2ccccc2)C[C@H]1COc1ccccc1 the Potency was “inactive”. For Fc1ccccc1-c1noc(N2CCCCC2)n1, the Potency was inconclusive: 44.7 µM [inhibitor, partial curve, poor fit]. For COc1cccc(C(=O)Nc2ccc(-c3ccc(OC)nn3)cc2)c1, the Potency was inconclusive: 44.7 µM [inhibitor, partial curve, poor fit]. For Cc1ccc(NC(=O)C2CC(=O)N(c3n[nH]c4cccc(F)c34)C2)nc1 (configuration not stated), the Potency was “inactive”. With Cc1ccc(-c2cccc(CN3CCCC(NC(=O)C4CCCC4)C3)c2)cc1Cl (configuration not stated) the Potency was “inactive”. With CCc1cccc(C)c1NC(=O)Cn1ccn2nc(-c3ccccc3)c(CO)c2c1=O the Potency was “inactive”. With Cc1ccc(-c2ccc3nnc(CNC(=O)c4ccc(Cl)cc4)n3n2)cc1 the Potency was inconclusive: 70.8 µM [inhibitor, single point]. In the case of CCn1nccc1C(=O)N1CCC(N2C(=O)[C@H]3CN(Cc4ccccc4)C[C@H]3C2=O)CC1, the Potency is reported as “inactive”. With O=C(CCC1CCCN(Cc2cccnc2)C1)Nc1ccccc1F (configuration not stated) the Potency was “inactive”. For O=C1[C@H]2CN(Cc3ccc(Cl)cc3)C[C@H]2C(=O)N1Cc1ccc2c(c1)OCO2, the Potency was inconclusive: 50.1 µM [inhibitor, partial curve, poor fit]. For O=C1Nc2ccccc2CC12CCN(Cc1ccc(OC(F)(F)F)cc1)CC2, the Potency was inconclusive: 56.2 µM [inhibitor, partial curve, poor fit]. In the case of CCN1CCN(C(=O)c2nc3sccn3c2-c2cccc(OC)c2)CC1, the Potency is reported as “inactive”. With Cc1cc(Cl)ccc1-c1ccc(CN)cc1 the Potency was active: 31.6 µM. With Fc1ccc(F)c(CN2CCC(Oc3ccccc3-c3nc(C4CCOCC4)no3)C2)c1 (configuration not stated) the Potency was inconclusive: 44.7 µM [inhibitor, partial curve, poor fit]. With Cc1nc(C2CC2)ncc1C(=O)N1CC[C@](C)(O)[C@@H](O)C1 the Potency was “inactive”. For CN1C(=O)C(c2ccccc2)CC12CCN(Cc1ccc(F)c(F)c1)CC2 (configuration not stated), the Potency was inconclusive: 35.5 µM [inhibitor, full curve]. With COc1ccc(Nc2cnc3ccc(N4CCOCC4)nn23)cn1 the Potency was inconclusive: 79.4 µM [inhibitor, partial curve, poor fit]. In the case of COCCNC(=O)[C@@H]1C[C@H](Oc2cccnc2)CN1C(=O)c1n[nH]c2ccccc12, the Potency is reported as “inactive”. With Cc1ccc(S(=O)(=O)N2CCCC(CCC(=O)N3CCCCC3)C2)cc1 (configuration not stated) the Potency was inconclusive: 44.7 µM [inhibitor, partial curve, poor fit]. In the case of O=C(Cc1cccc(Cl)c1)N1CCN(C(=O)c2nc3cccnc3n(CCc3ccccc3)c2=O)CC1, the Potency is reported as inconclusive: 50.1 µM [inhibitor, partial curve, poor fit]. With COc1ccc(OCC2CCCN(C(=O)c3cn(C4CCCCC4)nn3)C2)cc1 (configuration not stated) the Potency was inconclusive: 44.7 µM [inhibitor, partial curve, poor fit]. With COc1ccc(Cl)cc1S(=O)(=O)N1CCCC(Cn2cnc3cccnc32)C1 (configuration not stated) the Potency was inconclusive: 44.7 µM [inhibitor, partial curve, poor fit]. For CCCc1cc(N2CCC(NCc3c(F)cccc3Cl)CC2)nc(C)n1, the Potency was inconclusive: 44.7 µM [inhibitor, partial curve, poor fit]. In the case of CN1CCOc2c(C(=O)NCCc3cnc[nH]3)cc(-c3cccnc3)cc21, the Potency is reported as inconclusive: 100 µM [inhibitor, single point]. In the case of COCCN1CC(CO)C2(CCN(C(=O)c3nccc4ccccc34)CC2)C1 (configuration not stated), the Potency is reported as “inactive”. With Cc1noc(-c2ccccc2Cl)c1C(=O)NCc1cc(F)cc(F)c1 the Potency was inconclusive: 50.1 µM [inhibitor, partial curve, poor fit]. In the case of CC(C)(C)c1nc(C(=O)NCCc2ccc(Cl)cc2)n2ccncc12, the Potency is reported as inconclusive: 50.1 µM [inhibitor, partial curve, poor fit]. With O=C1CN(C(=O)c2cccc(C(F)(F)F)c2)CC(O)CN1Cc1ccc(Cl)cc1 (configuration not stated) the Potency was “inactive”. With COc1ccc(CCc2nc3nccc(-c4cccs4)n3n2)cc1OC the Potency was inconclusive: 44.7 µM [inhibitor, partial curve, poor fit]. With O=S(=O)(CCNc1cc(C2CC(O)C2)ncn1)c1ccc(F)cc1 (configuration not stated) the Potency was “inactive”. For CNC(=O)c1cc(C2CC2)nc2c1c(C1CCN([S+](=O)([O-])c3ccc(C)cc3)CC1)nn2C, the Potency was inconclusive: 50.1 µM [inhibitor, partial curve, poor fit]. With O=C(Nc1ccccc1)N1CCC(C(=O)N2CCCC2c2nc3ccncc3[nH]2)CC1 (configuration not stated) the Potency was “inactive”. With CC(C)CCC(=O)N1CCC(N2C(=O)CCC2C(=O)NC(C)C)CC1 (configuration not stated) the Potency was “inactive”. In the case of Fc1ccc(-c2cnc3n2C[C@H](CNCc2ccccc2Cl)OC3)cc1, the Potency is reported as inconclusive: 56.2 µM [inhibitor, partial curve, poor fit]. In the case of Cc1ccc(C(=O)N2CCC(C3CCN(S(C)(=O)=O)CC3)C2)c(=O)[nH]1 (configuration not stated), the Potency is reported as “inactive”. With COc1ccc(-c2ccc(C(=O)NC3CCCC3)c(Cl)c2)nn1 the Potency was inconclusive: 112 µM [inhibitor, single point]. In the case of CNC(=O)CCn1ncc2cc(OCc3ccccc3-c3ccccc3C)ccc21, the Potency is reported as inconclusive: 56.2 µM [inhibitor, partial curve, poor fit]. In the case of O=C(C1CCCC1)N1CCC2(CC1)CC(N(C(=O)c1ccccc1)C1CC1)CCO2 (configuration not stated), the Potency is reported as “inactive”. In the case of COc1cc(OC)cc(C(=O)N2CCC(Cc3nc(-c4ccccc4)no3)CC2)c1, the Potency is reported as inconclusive: 44.7 µM [inhibitor, partial curve, poor fit]. For COc1ccc([S+](=O)([O-])N2CCC3(CC2)OCCN(CCc2ccccc2)C3=O)cc1, the Potency was inconclusive: 50.1 µM [inhibitor, partial curve, poor fit]. In the case of Cc1cnc(C(=O)N2CCN(C(=O)N3CC4CC(C3)[C@H]3CCCC(=O)N3C4)CC2)cn1 (some centres not stated), the Potency is reported as “inactive”. For O=C1CC(c2ccccc2)N(C(=O)CC2CCCCC2)CCCCCCN1 (configuration not stated), the Potency was inconclusive: 35.5 µM [inhibitor, partial curve, poor fit]. In the case of COc1ccc(Nc2cnc3ccc(-c4ccc(OC)nc4)nn23)cc1, the Potency is reported as inconclusive: 11.2 µM [inhibitor, full curve, poor fit]. For CCN1C(=O)CN(C(=O)c2cccs2)CC12CCOCC2, the Potency was “inactive”. For COc1ccc(CN2CCN(c3ccccc3)CC2C)c(OC)c1OC (configuration not stated), the Potency was inconclusive: 50.1 µM [inhibitor, partial curve, poor fit]. In the case of CC(=O)N[C@@H]1CN(Cc2cn[nH]c2-c2ccc(F)cc2)C[C@H]1CO, the Potency is reported as “inactive”. With C=CCN1C[C@H](COCc2ccccc2)Oc2ccncc2[S+]1(=O)[O-] the Potency was inconclusive: 31.6 µM [inhibitor, partial curve, poor fit]. For COCCNC(=O)c1ccc2c(c1)C1(CCN(CC3CC3)C1)CN2Cc1ccccc1 (configuration not stated), the Potency was inconclusive: 44.7 µM [inhibitor, full curve]. In the case of CCc1nc2c(c(-c3ccc(OC)cc3)n1)CCN([S+](=O)([O-])c1ccc(N(C)C)cc1)CC2, the Potency is reported as “inactive”. With CCN1CCC(NCc2cccnc2N2CCN(c3ccccn3)CC2)CC1 the Potency was “inactive”. With Cc1noc(C)c1S(=O)(=O)N1CCC2(CC1)CC(C(=O)N1CCOCC1)N(C)C2 (configuration not stated) the Potency was “inactive”. In the case of Cc1ccc(NC(=O)N2CCc3c(c4cc(F)ccc4n3C)C2)cc1, the Potency is reported as inconclusive: 50.1 µM [inhibitor, partial curve, poor fit]. For O=C(c1cccc(Cl)c1)N1CCC(N(C(=O)C2CC2)C2CCOCC2)CC1, the Potency was “inactive”.
